{"source": "the supplement of paper PMC11348887", "note": "Structures can show the parent of a compound that is named as a salt. This is one part of the list. No stated cut-off is given here; in the data, active = -2 or less and inactive = the rest. Repeats are few or missing, and single values can be far off.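 Further: nuclei counted from DAPI counterstain by automated high-content image analysis, four fields per well at ×20 in 384-well plates, with sequential b-score then z-score normalization.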"}
{"test_system": "hPSC-derived cortical neurons (WA09)", "assay": "nuclei number (viability) z-score; higher = more surviving cells", "conditions": "5 µM; treatment: days 7-14 after plating, readout day 21"}
{"compound": "Cc1nn(C)c(COc2ccc(N3CCN(S(=O)(=O)N(C)C)CC3)cc2)c1-c1cccc2c(CCCOc3cccc4ccccc34)c(C(=O)O)n(CCN3CCOCC3)c12", "nuclei number (z-score)": "inactive: 0.136"}
{"compound": "CCCC(=O)Nc1ccc(OCC(O)CNC(C)C)c(C(C)=O)c1", "note": "(stereo unspecified) [Acebutolol HCl]", "nuclei number (z-score)": "inactive: -1.16"}
{"compound": "COc1ccnc2[nH]cc(C(=O)C(=O)N3CCN(C(=O)c4ccccc4)C[C@H]3C)c12", "nuclei number (z-score)": "inactive: 2.32"}
{"compound": "C[C@@H]1O[C@@H](OC[C@H]2O[C@@H](Oc3c(-c4ccc(O)c(O)c4)oc4cc(O)cc(O)c4c3=O)[C@H](O)[C@@H](O)[C@@H]2O)[C@H](O)[C@H](O)[C@H]1O", "note": "[Rutin]", "nuclei number (z-score)": "inactive: -0.0429"}
{"compound": "NC(=O)Nc1sc(-c2ccc(F)cc2)cc1C(N)=O", "nuclei number (z-score)": "inactive: -1.1"}
{"compound": "CC(C)(C)OC(=O)N[C@H]1CCCCC/C=C\\[C@@H]2C[C@@]2(C(=O)NS(=O)(=O)C2CC2)NC(=O)[C@@H]2C[C@@H](OC(=O)N3Cc4cccc(F)c4C3)CN2C1=O", "note": "[Danoprevir (ITMN-191)]", "nuclei number (z-score)": "inactive: 0.194"}
{"compound": "O=C(Nc1ccccc1)OCC(CN1CCCCC1)OC(=O)Nc1ccccc1", "note": "(stereo unspecified) [Diperodon HCl]", "nuclei number (z-score)": "inactive: 2.82"}
{"compound": "C[C@H](CCC(=O)O)[C@H]1CC[C@H]2[C@@H]3C[C@H](O)[C@@H]4C[C@H](O)CC[C@]4(C)[C@H]3CC[C@]12C", "note": "[Hyodeoxycholic acid (HDCA)]", "nuclei number (z-score)": "inactive: 0.0584"}
{"compound": "N=C(N)c1ccc(N=NNc2ccc(C(=N)N)cc2)cc1", "note": "[Diminazene Aceturate]", "nuclei number (z-score)": "inactive: 11.4"}
{"compound": "C[C@@H]1O[C@@H](O[C@H]2[C@H](Oc3cc(O)c4c(c3)O[C@H](c3ccc(O)cc3)CC4=O)O[C@H](CO)[C@@H](O)[C@@H]2O)[C@H](O)[C@H](O)[C@H]1O", "note": "[Naringin]", "nuclei number (z-score)": "inactive: 7.44"}
{"compound": "Cn1cc(C2=C(c3cn(CCCSC(=N)N)c4ccccc34)C(=O)NC2=O)c2ccccc21", "note": "[Ro 31-8220 Mesylate]", "nuclei number (z-score)": "active: -8.88"}
{"compound": "N[C@@H](CC(=O)N1CCn2c(nnc2C(F)(F)F)C1)Cc1cc(F)c(F)cc1F", "note": "[Sitagliptin phosphate monohydrate]", "nuclei number (z-score)": "inactive: 1.22"}
{"compound": "Nc1nccc2c1ncn2C1C=C(CO)C(O)C1O", "note": "(stereo unspecified) [3-Deazaneplanocin A (DZNeP)]", "nuclei number (z-score)": "inactive: 1.92"}
{"compound": "Cc1nc(N(C)C(=O)Cc2ccc(-c3ccccn3)cc2)sc1S(N)(=O)=O", "note": "[Pritelivir (BAY 57-1293)]", "nuclei number (z-score)": "inactive: 0.449"}
{"compound": "Cn1cc(/C=C/C(=O)c2cccc(F)c2)cc1/C=C/C(=O)NO", "nuclei number (z-score)": "inactive: 0.028"}
{"compound": "COc1nc(C)cnc1NS(=O)(=O)c1cccnc1-c1ccc(-c2nnco2)cc1", "note": "[Zibotentan (ZD4054)]", "nuclei number (z-score)": "inactive: -0.333"}
